# From the supplement of paper PMC4166925
# ± gives the standard deviation of the averaged measurements. The full ranking holds about 33,000 sequences; the median of “E-score (dimensionless, -0.5 to 0.5)” is about -0.049, and the highest 2% start at about 0.37. Some of the results follow.
# Test system: T1, PmTbr T-box DNA-binding domain (GST fusion)
# T1 sequence: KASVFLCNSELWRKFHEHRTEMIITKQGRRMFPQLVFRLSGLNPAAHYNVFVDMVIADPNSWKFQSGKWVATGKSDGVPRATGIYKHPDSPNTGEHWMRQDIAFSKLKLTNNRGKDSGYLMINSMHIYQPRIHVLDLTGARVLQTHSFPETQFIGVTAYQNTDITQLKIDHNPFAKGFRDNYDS
# Experiment: PBM E-score of 8-mer (E-score (dimensionless, -0.5 to 0.5)); Tbr is Tbrain of the sea star Patiria miniata (Pm) or the sea urchin Strongylocentrotus purpuratus (Sp); higher = stronger binding preference; most listed sequences are background and not binding sites
# Conditions: the construct has about 5 more residues each side
# In short: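 Using the Universal PBM Analysis Suite, every ungapped 8-mer received an enrichment E-score averaged over duplicate arrays. Probe intensities came from double-stranded Universal Agilent oligonucleotide arrays incubated with 200 nM GST-fused Tbr T-box DNA-binding domain in PBS (pH 7.5). That protein was expressed in BL21 E. coli at 20 °C and purified by glutathione affinity chromatography.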
row,Sequence,PBM E-score of 8-mer
1,CGGTCATC,-0.0674 ± 0.068
2,CACATTAC,0.169 ± 0.021
3,AAAATGGG,-0.136 ± 0.027
4,AGCTCGGC,-0.0514 ± 0.02
5,CACTATAG,0.132 ± 0.021
6,GAGAAGGA,-0.05879 ± 0.00027
7,ATATCCTA,0.0612 ± 0.018
8,ACGTGCGG,0.191 ± 0.05
9,CTCTTCTA,-0.215 ± 0.1
10,GGATTTAC,-0.0731 ± 0.089
11,CCCCACGG,-0.141 ± 0.02
12,GAATCTCA,-0.00438 ± 0.087
13,GAAGGTAA,0.00393 ± 0.033
14,CTCAGATC,-0.0445 ± 0.0025
15,ACGCCGTC,0.0297 ± 0.06
16,ACTAATGC,-0.0928 ± 0.014
17,AAGAACTG,-0.0374 ± 0.042
18,AGCCTGAT,-0.0175 ± 0.0064
19,ATACGCAC,0.185 ± 0.035
20,ATCGTCCA,-0.209 ± 0.0024
21,GGCGTCGA,0.2859 ± 0.001
22,CCGACCTC,-0.0831 ± 0.028
23,TGTGGGAA,0.19 ± 0.044
24,CTCAGACA,0.0672 ± 0.014
25,AATCATTG,0.0313 ± 0.08

row,Sequence,PBM E-score of 8-mer
1,CTTACTGA,-0.15 ± 0.022
2,CGTTATGC,-0.182 ± 0.045
3,ACTTTGTA,-0.0604 ± 0.091
4,CGGCCTAC,-0.111 ± 0.013
5,ATCTACAC,0.12 ± 0.071
6,CCCGATAG,-0.0866 ± 0.04
7,CAATTCCA,0.0475 ± 0.027
8,CCCCTACC,-0.161 ± 0.015
9,ACAAAAAG,0.0751 ± 0.056
10,ATGCTGAC,-0.219 ± 0.057
11,GAAGTAGA,-0.108 ± 0.043
12,ACAAGCAT,-0.0836 ± 0.09
13,AGCCACAG,-0.103 ± 0.04
14,CGATGCTC,-0.0504 ± 0.069
15,TCACTGCA,0.158 ± 0.043
16,TAAACGGA,-0.174 ± 0.057
17,CGATACGA,0.0264 ± 0.0098
18,ACTTTTAT,0.0193 ± 0.1
19,ATCATTTG,-0.105 ± 0.02
20,GGGTAATA,-0.219 ± 0.068
21,AATAAGAT,-0.278 ± 0.029
22,TAGCGTGA,0.342 ± 0.0046
23,TGGGTACA,-0.202 ± 0.034
24,CGGCTCGC,0.0624 ± 0.063
25,CATTGAAG,-0.0382 ± 0.035

row,Sequence,PBM E-score of 8-mer
1,TTAGCGAA,0.182 ± 0.041
2,CAGCAAAC,-0.0206 ± 0.022
3,GATATGTA,-0.163 ± 0.051
4,CCCTACTA,-0.11 ± 0.026
5,CCGACCAC,-0.0651 ± 0.017
6,AAATTACT,0.0462 ± 0.059
7,CTGAATTA,-0.0432 ± 0.00054
8,CTGCTAGC,0.115 ± 0.026
9,AGCGCAAT,0.0713 ± 0.0017
10,AACTCTGA,-0.1366 ± 0.0004
11,AGATCTTG,0.0816 ± 0.037
12,ACTAGGAC,-0.144 ± 0.05
13,GAAAGTGA,0.321 ± 0.007
14,AACCAGAA,-0.0657 ± 0.0077
15,CTGCACTA,-0.0615 ± 0.0083
16,AGGCATAA,-0.0918 ± 0.035
17,CAATATAG,0.203 ± 0.033
18,CAGAAAGC,-0.192 ± 0.014
19,GGTTTAAA,0.0187 ± 0.0062
20,ACGTCGAA,-0.235 ± 0.056
21,AAGTCCGT,-0.107 ± 0.0046
22,GTGCACAA,0.0769 ± 0.0029
23,ATGGTCGG,-0.337 ± 0.025
24,AGTACCGC,-0.0413 ± 0.045
25,ATTGTCTG,-0.169 ± 0.009

row,Sequence,PBM E-score of 8-mer
1,CTGGGGAA,-0.0513 ± 0.068
2,TAATTGTA,-0.282 ± 0.023
3,AGAACCTC,-0.197 ± 0.047
4,CCGTAGCG,-0.169 ± 0.0029
5,ATCATCAC,0.381 ± 0.008
6,ACACCGTA,0.216 ± 0.016
7,ACTTCGCA,0.351 ± 0.0071
8,CAGGTAGC,-0.062 ± 0.011
9,CCTCATCC,-0.0237 ± 0.038
10,TCAAGTGA,0.147 ± 0.036
11,CTACGGGC,-0.126 ± 0.08
12,CAATGCGC,0.0146 ± 0.087
13,TGGGAAAA,0.0876 ± 0.041
14,TCTCAGAA,-0.165 ± 0.036
15,AAGCATTA,-0.0757 ± 0.075
16,AATATTGA,-0.0213 ± 0.066
17,CCCTACCC,-0.222 ± 0.0063
18,GACGTGCA,0.155 ± 0.018
19,AGGCCTCG,-0.0795 ± 0.089
20,AATATTCG,0.0865 ± 0.092
21,AGATGACT,-0.198 ± 0.0034
22,GCAAACGC,0.0327 ± 0.067
23,ATGCTCCA,-0.0597 ± 0.036
24,GAATTCGC,0.26 ± 0.06
25,CGACGCCG,0.147 ± 0.031

row,Sequence,PBM E-score of 8-mer
1,AAAAGAGG,-0.0773 ± 0.0089
2,GACGTATC,-0.236 ± 0.055
3,CAATCTCG,0.136 ± 0.042
4,AAGGACGA,-0.202 ± 0.033
5,ACCGGGCC,-0.292 ± 0.12
6,ACCGACAC,0.391 ± 0.02
7,AGGTATAC,-0.226 ± 0.008
8,GCTTTGAC,-0.034 ± 0.033
9,TAGTAGGA,-0.184 ± 0.025
10,TCCAACAA,-0.055 ± 0.0034
11,ACTAACAA,0.214 ± 0.032
12,CTCCATTA,-0.215 ± 0.057
13,AAGGTGAT,0.424 ± 0.021
14,CGTGCCAG,0.178 ± 0.0057
15,AGGCAGCA,-0.237 ± 0.018
16,ACCACAAA,-0.014 ± 0.036
17,CCTTAGAC,-0.0798 ± 0.038
18,AATATAAT,-0.0469 ± 0.047
19,CCGACGAC,-0.0371 ± 0.099
20,ATCGTCCC,-0.0488 ± 0.0074
21,AAGCGTCG,0.0961 ± 0.0071
22,GTTGCCGA,-0.0534 ± 0.066
23,AACCTCGC,0.196 ± 0.035
24,CCCTCCAG,-0.117 ± 0.04
25,GACCGAGA,-0.102 ± 0.024

row,Sequence,PBM E-score of 8-mer
1,CCTACGCA,-0.19 ± 0.057
2,CGTCTTCC,-0.0652 ± 0.0067
3,GCCATCAA,-0.0808 ± 0.022
4,TAACTTGA,-0.127 ± 0.056
5,AGCCTACT,-0.00437 ± 0.033
6,AGTCGCTC,0.00723 ± 0.089
7,ATCTGAAC,0.0481 ± 0.04
8,ACTTCTGG,0.0765 ± 0.065
9,CAGCATTC,-0.0896 ± 0.0049
10,CATGACAC,0.389 ± 0.0048
11,CGATGCTA,-0.0532 ± 0.085
12,CCCTAAGC,-0.0346 ± 0.01
13,CGTGCGCA,0.0827 ± 0.019
14,CAGGGTGA,0.155 ± 0.077
15,CCAACATA,0.064 ± 0.042
16,CAAGTCTG,0.157 ± 0.013
17,CGTCTACA,-0.0537 ± 0.044
18,AACGGATG,-0.0787 ± 0.049
19,GTTCGGTA,0.0103 ± 0.042
20,TGGCCGAA,0.00542 ± 0.071
21,CTCTCATA,-0.152 ± 0.0066
22,GTTACATA,-0.0916 ± 0.032
23,ACTTTGTG,0.0808 ± 0.11
24,GCCTGCAC,0.0125 ± 0.0026
25,ACGCGGGA,-0.188 ± 0.1

row,Sequence,PBM E-score of 8-mer
1,ACCAAATA,-0.2091 ± 0.0015
2,CGCCACGA,0.0748 ± 0.052
3,AGTCCTGC,-0.102 ± 0.033
4,CTGAGCAC,0.0183 ± 0.04
5,CCCCCTGC,-0.253 ± 0.059
6,AACTATCT,-0.0669 ± 0.076
7,GCAGACGC,-0.09 ± 0.041
8,AAGGGGTC,-0.177 ± 0.02
9,GAGGTACA,-0.209 ± 0.034
10,GCCTCCCC,-0.145 ± 0.0075
11,CTCGTCGA,-0.0938 ± 0.039
12,AACTGAAT,-0.239 ± 0.045
13,CTATTCGC,0.266 ± 0.0095
14,GTAATCAA,-0.0577 ± 0.022
15,CAACTTGG,0.181 ± 0.025
16,AGGGTGAG,0.137 ± 0.097
17,CGACATTC,-0.159 ± 0.051
18,AGAGTACT,-0.133 ± 0.067
19,ATATCCTC,-0.14 ± 0.015
20,AGGGTGAC,0.326 ± 0.031
21,GACCTTAA,-0.136 ± 0.0073
22,CTATATCC,-0.138 ± 0.016
